In article PMC4336329 (PLoS ONE, 2015):
Out of some 310,000 compounds screened, about 14,000 (4.5%) showed an effect of 50% or more. Effects have a minus sign here. The list shows a part of the results.

Molecular target: human ether-à-go-go-related gene (hERG) potassium channel (human, UniProt Q12809)
Experiment: primary screen, population patch clamp on CHO cells stably expressing hERG
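Note: peak tail current of the secondary pulse compared with the same well before compound.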

Chain of human ether-à-go-go-related gene (hERG) potassium channel (Q12809 whole entry, looked up): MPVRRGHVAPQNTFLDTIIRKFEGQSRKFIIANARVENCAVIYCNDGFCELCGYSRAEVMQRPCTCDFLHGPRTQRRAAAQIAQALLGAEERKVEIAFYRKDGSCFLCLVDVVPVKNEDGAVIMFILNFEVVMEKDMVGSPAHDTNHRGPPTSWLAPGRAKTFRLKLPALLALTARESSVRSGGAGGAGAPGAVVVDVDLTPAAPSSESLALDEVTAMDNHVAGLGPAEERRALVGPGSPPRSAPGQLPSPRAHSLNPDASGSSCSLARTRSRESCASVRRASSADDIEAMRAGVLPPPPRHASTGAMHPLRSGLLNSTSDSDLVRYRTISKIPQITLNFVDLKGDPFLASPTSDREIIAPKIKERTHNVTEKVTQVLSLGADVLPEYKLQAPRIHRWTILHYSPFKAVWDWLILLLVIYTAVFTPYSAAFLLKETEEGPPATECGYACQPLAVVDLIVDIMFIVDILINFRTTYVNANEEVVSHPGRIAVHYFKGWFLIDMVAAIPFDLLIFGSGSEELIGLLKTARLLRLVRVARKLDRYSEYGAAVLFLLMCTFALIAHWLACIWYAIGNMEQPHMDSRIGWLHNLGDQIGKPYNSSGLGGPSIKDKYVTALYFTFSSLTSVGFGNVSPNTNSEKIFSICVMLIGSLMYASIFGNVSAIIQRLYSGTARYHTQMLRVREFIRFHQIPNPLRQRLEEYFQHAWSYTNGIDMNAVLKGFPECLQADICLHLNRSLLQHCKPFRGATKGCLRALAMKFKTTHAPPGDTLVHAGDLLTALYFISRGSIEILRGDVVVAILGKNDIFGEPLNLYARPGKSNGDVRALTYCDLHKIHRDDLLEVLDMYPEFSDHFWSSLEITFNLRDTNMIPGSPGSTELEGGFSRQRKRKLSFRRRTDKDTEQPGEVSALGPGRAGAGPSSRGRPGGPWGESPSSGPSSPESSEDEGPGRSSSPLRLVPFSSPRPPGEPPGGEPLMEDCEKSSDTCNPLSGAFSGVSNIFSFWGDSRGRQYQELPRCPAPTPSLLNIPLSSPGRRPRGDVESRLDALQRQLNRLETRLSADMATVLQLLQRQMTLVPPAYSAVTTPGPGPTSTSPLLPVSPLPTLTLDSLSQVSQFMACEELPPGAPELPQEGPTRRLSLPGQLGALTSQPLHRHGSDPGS

Row | SMILES | hERG current change (%, negative = inhibition) at 10uM [%]
1 | CC1CCCC(NC(=O)CCCn2c(=O)[nH]c3cc(Cl)ccc3c2=O)C1C (stereo not drawn) | 3.76
2 | Cc1cc(N(CCCl)CCCl)ccc1/C=N/N=C(\N)c1cnccn1 | -4.21
3 | Cc1cc(C)n2nc(SCC(=O)N(CCC#N)c3ccc(F)cc3)nc2n1 | -19.2
4 | CC1CN(C(=O)CCS(=O)(=O)c2ccccc2)CC(C)O1 (stereo not drawn) | 27.1
5 | CCNC(=O)COC(=O)CCNC(=O)c1cccc(C)c1 | 5.34
6 | O=C(NCCN1CCCCCC1)C1CCC(CNS(=O)(=O)c2cccc3cccnc23)CC1 (stereo not drawn) | -7.32
7 | CC(O)c1nc2ccccc2n1C(C)c1ccccc1 (stereo not drawn) | 16.8
8 | COc1cc(C(C(=O)NCc2ccccc2)N(C(=O)c2snc(C(N)=O)c2N)C2CCCC2)cc(OC)c1OC (stereo not drawn) | -27.3
9 | O=C(O)c1ccccc1-c1cn2cc(Cl)ccc2n1 | 25
10 | O=C(/C=C/c1ccccc1)N1CCN(CCN2C(=O)c3cccc4cccc(c34)C2=O)CC1 | -47.7
11 | Cc1ccc(OCCCCN2CCc3ccccc3C2)c(C)c1.Cl | -34.1
12 | N#C/C(=C\c1cn(CCOc2ccccc2)c2ccccc12)C(=O)NCC1CCCO1 (stereo not drawn) | -11.7
13 | Cc1ccc(N2CC(C(=O)OCC(=O)c3ccc[nH]3)CC2=O)cc1 (stereo not drawn) | -24.2
14 | Cc1ccc(CN(c2ccc(C(=O)Nc3cccnc3)cc2)S(C)(=O)=O)cc1 | -11.2
15 | CCN1C(c2ccccc2)=C(c2ccccc2)S/C1=C\C=C1/SC(=S)N(C)C1=O | 15
16 | Cc1ccc(NC(=S)N/N=C2/CCCc3c(C)cc(C)cc32)cc1 | -6.41
17 | Cc1ccc(NC(=S)N/N=C/c2c(C)nn(-c3ccccc3)c2N2CCCC2)cc1 | 12.5
18 | NC(=O)c1ccc(-c2nnn(CC(=O)N(C3CCCCC3)C3CCS(=O)(=O)C3)n2)cc1 (stereo not drawn) | 10
19 | CCCOc1ccc(Cc2c(Cl)nc(SC)nc2NC)cc1 | 16.9
20 | Cc1ccc(C(C)C)c(OCCN2CCc3ccccc3C2)c1.Cl | 14.5
21 | COc1ccc2cc(C#N)c(Nc3cccc(F)c3)nc2c1 | 27.2
22 | CCNC(=S)N(Cc1ccccc1)Cc1nc2ccccc2c(=O)[nH]1 | -7.25
23 | COC(=O)c1sc(N)c(C(=O)OC)c1CSc1nnnn1C | -12.2
24 | O=C(C1CCC(C(=O)N2CCCCC2)CC1)N1CCCCC1 (stereo not drawn) | 6.09
